# In PubChem BioAssay AID1508642 (National Center for Advancing Translational Sciences (NCATS), 2021):
# In all, about 43,000 compounds went through this assay and about 200 (0.47%) were called active. Inconclusive results (about 12%) are left out. Calls come from the whole dose curve; as a rule, active = well fitted cell-killing curve with a large enough effect; inconclusive = small, poorly fitted or top-dose-only effect, or effect the other way; inactive = flat fitted curve, though single readings scatter. Some of the results follow.
# Test: Cell viability qHTS assay in S16 Pmp22-F2sN cells; note: nearly all actives have a fitted effect of over 65% in size
# Conditions: S16 Pmp22-F2sN Schwann cells (luciferase reporters placed in the Pmp22 gene) viability, CellTiter-Glo, 24 h; series mostly up to 57.5 µM; activity change, negative = cytotoxicity: at the top concentration
# In short: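 Rat S16 Schwann reporter line, 24 h treatment with library compounds delivered at 23 nL per well. Cell viability by CellTiter-Glo luminescence.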
# % is set by controls: 0 for no effect and ±100 for the full control effect.
row,SMILES,"activity change, negative = cytotoxicity"
1,O=c1c(=O)n(Cc2c(F)cccc2Cl)ccn1Cc1ccccc1,inactive: -7.98%
2,CC(C)NC(=O)Cn1nc(N2CCN(c3ccccc3)CC2)ccc1=O,inactive: 1.71%
3,COc1ccc2oc(-c3ccc(C)c(NC(=O)CSc4ccc(Cl)cc4)c3)nc2c1,inactive: -1.27%
4,CCOc1cc(C2C(C(=O)OC)=C(C)NC3=C2C(=O)c2ccccc23)c(Br)cc1O (configuration not stated),inactive: -15.2%
5,CC(=O)N1c2ccc(S(=O)(=O)N3CCN(c4cccc(Cl)c4)CC3)cc2CC1C (configuration not stated),inactive: 3.98%
6,CCN(CC)c1ccc(NC(=O)CN2C(=O)c3cccnc3Sc3ccccc32)c(C)c1,inactive: -0.256%
7,COc1cccc(NC(=O)Cn2c(=O)n(CC(=O)NCCc3ccccc3)c(=O)c3sccc32)c1,inactive: 3.34%
8,Cc1ccc(-c2c3c(=O)n(C)c(=O)n(C)c3cn2-c2cc(C)ccc2O)cc1,inactive: -0.185%
9,COc1ccc(N2CCN(C3C(=O)c4ccccc4N3C(C)=O)CC2)cc1 (configuration not stated),inactive: -1.18%
10,CCc1nn2c(=O)cc(COc3ccc(/C=C(\C#N)C(=O)Nc4ccc(C)cc4)cc3)nc2s1,inactive: 16.7%
11,Cc1cccc(N2CCN(Cc3nnc(-c4ccc5c(c4)OCO5)o3)CC2)c1C,inactive: 0.0878%
12,COc1ccc(NC(=O)Nc2ccccc2OCc2cc(=O)n3ccccc3n2)c(OC)c1,inactive: 4.52%
13,O=C(CN1C(=O)C2CCCCN2c2ccc(C(=O)N3CCCC3)cc21)NCc1cccc(F)c1 (configuration not stated),inactive: 5.57%
14,O=C(Cn1c(=O)c2cccn2c2ccc(F)cc21)N1CCN(c2ccccc2)CC1,inactive: -5.54%
15,CCc1ccc(NC(=O)Cn2c(=O)n(CC3CCCO3)c(=O)c3cc(OC)c(OC)cc32)cc1 (configuration not stated),inactive: 20%
16,Cc1ccc(-c2cc(C(F)(F)F)c(C#N)c(SCC(=O)O)n2)cc1,inactive: -10.4%
17,O=C(NCc1ccccc1)c1ccc2c(c1)nc1n2CCCCC1,inactive: 18.2%
18,Cc1cc(C)cc(NC(=O)Cn2c3ncccc3c(=O)n2-c2ccc(C)c(C)c2)c1,inactive: -7.52%
19,Cc1ccc(CSc2ncc(Cl)c(C(=O)Nc3sc4c(c3C(N)=O)CCCC4)n2)cc1,inactive: 3.69%
20,O=C(Cn1cnc2nc3c(cc2c1=O)CCCC3)N1CCN(c2ccccc2)CC1,inactive: -8.65%
21,Cc1ccc(C(=O)COC(=O)CCC(=O)Nc2ccc(Oc3cc(C)ccc3C(C)C)cc2)cc1,inactive: 6.38%
22,CCc1ccc(C2=NN(CCC(=O)NCCc3ccc(Cl)cc3)C(=O)CC2)cc1,inactive: -8.41%
23,Cc1ccc2c(c1)-c1c(cnn1CC(=O)Nc1ccccc1C#N)CO2,inactive: -17.3%
24,CCOC(=O)c1nnc2c(-c3ccc(Cl)cc3)c(C)nn2c1C,inactive: 28.3%

row,SMILES,"activity change, negative = cytotoxicity"
1,Cc1c(C(=O)NCCN(C)C)sc2nc3n(c(=O)c12)CCC3,inactive: 3.88%
2,O=C(NCC(c1ccccc1)c1ccccc1)c1nn(-c2ccccc2F)nc1CO,inactive: -1.03%
3,Cc1ccc(CCNC(=O)CCSCc2ccccc2Cl)cc1,inactive: 18.4%
4,CCCn1c2ccccc2c2cnn(CC(=O)NC(CCSC)C(=O)OC)c(=O)c21 (configuration not stated),inactive: 1.94%
5,Cc1ccc2c(c1)c(=O)c1ccccc1n2CCCC(=O)Nc1c(F)cccc1F,inactive: 3.28%
6,CN(Cc1ccccc1)C(=O)c1cn(C)c2ccc(S(=O)(=O)N(C)C3CCCCC3)cc2c1=O,inactive: -20.6%
7,COc1cc(NC(=O)c2c(C)oc3ncnc(N4CCCCC4)c23)cc(OC)c1,inactive: -12%
8,COc1ccc(/C=C(/C#N)c2nc(-c3ccc(Br)cc3)cs2)cc1,inactive: 14.1%
9,Cc1cc(Br)ccc1NC(=O)C1CCN(S(=O)(=O)c2ccc(Br)s2)CC1,inactive: 22.5%
10,CCOc1ccc(NC(=O)CCS(=O)(=O)c2ccc(Br)cc2)cc1,inactive: -12%
11,COc1ccc(NC(=O)c2c(C)oc3ccc(O)c(CN4CCN(Cc5ccccc5)CC4)c23)cc1,inactive: -4.34%
12,Cc1cccc(Cn2c(SCc3ccc(C(=O)NC4CCCCC4)cc3)nc3ccncc32)c1,inactive: -1.52%
13,CCC(=O)N1CCc2cc(S(=O)(=O)CCC(=O)NCc3cccc(OC)c3)ccc21,inactive: -0.351%
14,COc1cccc(CNC(=O)c2ccc(NC(=O)N3CC(C)Sc4ccccc43)cc2)c1 (configuration not stated),inactive: 4.74%
15,Cc1ccccc1Nc1c(-c2ccncc2)nc2ccc(Cl)cn12,inactive: -8.4%
16,O=C(c1ccc(CS(=O)c2ccccc2Cl)o1)N1CCN(c2cccc(Cl)c2)CC1 (configuration not stated),inactive: -8.8%
17,CC(CNC(=O)CCCn1c(=O)c2cccn2c2cccnc21)c1ccccc1 (configuration not stated),inactive: -9.03%
18,Cc1ccc2nc(Cl)c3cc(C(=O)NC4CCCCCC4)sc3c2c1,inactive: 7.32%
19,CCC1CN(C(=O)Nc2ccc(C(=O)O)cc2)c2cc(Cl)ccc2O1 (configuration not stated),inactive: -7.59%
20,O=C(CSc1cn(CC(=O)N2CCCC2)c2ccccc12)Nc1cc(C(F)(F)F)ccc1Cl,inactive: -26.3%
21,COc1cc(NC(=O)c2ccc(NC(=O)N3CCSc4ncccc43)cc2)cc(OC)c1,inactive: 3.75%
22,CC(C)(C)OC(=O)N1CCC(c2c(C(=O)N3CCN(C(=O)c4ccco4)CC3)cnn2-c2ccccc2)CC1,inactive: 1.87%
23,Cc1cccc(CCNC(=O)C2CCCN(S(=O)(=O)c3ccc4c(c3)oc(=O)n4C)C2)c1 (configuration not stated),inactive: 0.951%
